The entries are a selection whose mix differs from that of the whole data set. The list includes weakly bound sequences.
Assays:
Assay in all cases: protein-binding microarray (PBM)
Settings in all cases: PBM: ~300 nM protein, 6 mM HEPES pH 7.8, 80 mM KCl, 0.5 mM EDTA, 0.5 mM EGTA, 6% glycerol, 35 ng/ul poly-dIdC, 1% milk, 1 h, room temperature; Ap Aiptasia and Nv Nematostella (sea anemones) / Co Capsaspora / Aq Amphimedon (sponge) / Dm Drosophila / Hu human; RHD is the Rel homology domain; high values mean tight binding; most listed sequences are background and not binding sites; double strand, one strand shown
GST-Ap-NF-kB RHD = target: T1, GST-Ap-NF-kB RHD (UniProt A0A913YAJ5)
T1 sequence: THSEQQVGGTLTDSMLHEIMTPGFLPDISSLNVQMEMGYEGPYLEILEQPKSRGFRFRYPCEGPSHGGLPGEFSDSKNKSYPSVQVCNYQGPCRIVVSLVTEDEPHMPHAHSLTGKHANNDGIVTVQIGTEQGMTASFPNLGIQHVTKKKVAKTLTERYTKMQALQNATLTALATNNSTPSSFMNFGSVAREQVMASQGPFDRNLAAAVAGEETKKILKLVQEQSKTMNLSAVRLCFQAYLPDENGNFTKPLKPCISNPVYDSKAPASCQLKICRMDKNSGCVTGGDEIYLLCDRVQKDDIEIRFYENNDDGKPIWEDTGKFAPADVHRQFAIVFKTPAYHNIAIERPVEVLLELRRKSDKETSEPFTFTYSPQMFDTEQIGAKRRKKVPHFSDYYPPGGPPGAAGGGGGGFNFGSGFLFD

[1] = target: T2, GST-Nv-NF-kB (Cys allele) (UniProt E5G601)
T2 sequence: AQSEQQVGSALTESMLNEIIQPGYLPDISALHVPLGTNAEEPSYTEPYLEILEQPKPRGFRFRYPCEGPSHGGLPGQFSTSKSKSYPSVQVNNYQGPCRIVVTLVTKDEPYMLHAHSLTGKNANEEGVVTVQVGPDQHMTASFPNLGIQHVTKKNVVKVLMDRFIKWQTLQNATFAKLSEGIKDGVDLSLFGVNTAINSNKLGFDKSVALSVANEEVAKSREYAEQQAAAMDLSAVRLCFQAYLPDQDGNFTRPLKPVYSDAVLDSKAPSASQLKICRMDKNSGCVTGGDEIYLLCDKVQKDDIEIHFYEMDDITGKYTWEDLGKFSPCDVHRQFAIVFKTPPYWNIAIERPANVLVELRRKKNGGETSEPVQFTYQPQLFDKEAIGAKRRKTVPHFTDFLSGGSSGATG

GST-Co-NF-kB = target: T3, GST-Co-NF-kB (UniProt F1ARL5)
T3 sequence: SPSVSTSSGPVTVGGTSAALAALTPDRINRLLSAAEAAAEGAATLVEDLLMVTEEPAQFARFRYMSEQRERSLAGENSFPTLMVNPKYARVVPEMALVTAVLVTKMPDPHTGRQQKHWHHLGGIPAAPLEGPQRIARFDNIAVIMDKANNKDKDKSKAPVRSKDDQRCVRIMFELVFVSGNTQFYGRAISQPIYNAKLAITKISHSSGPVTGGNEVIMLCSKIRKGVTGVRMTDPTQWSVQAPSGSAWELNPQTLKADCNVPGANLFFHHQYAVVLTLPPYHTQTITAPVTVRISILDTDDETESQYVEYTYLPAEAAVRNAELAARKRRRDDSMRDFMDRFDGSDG

GST-Dm-Relish = target: T4, GST-Dm-Relish (UniProt Q94527)
T4 sequence: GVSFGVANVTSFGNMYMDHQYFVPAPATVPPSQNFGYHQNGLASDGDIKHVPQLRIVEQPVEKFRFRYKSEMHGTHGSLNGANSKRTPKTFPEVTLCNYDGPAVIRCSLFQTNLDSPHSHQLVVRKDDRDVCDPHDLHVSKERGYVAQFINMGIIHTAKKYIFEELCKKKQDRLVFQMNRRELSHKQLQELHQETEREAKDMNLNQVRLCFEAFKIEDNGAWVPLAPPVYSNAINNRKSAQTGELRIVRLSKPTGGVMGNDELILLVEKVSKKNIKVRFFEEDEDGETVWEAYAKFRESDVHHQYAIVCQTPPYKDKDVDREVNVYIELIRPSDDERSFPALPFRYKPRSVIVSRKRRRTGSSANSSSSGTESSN

GST-Aq-NF-kB = target: T5, GST-Aq-NF-kB (UniProt A9Y5G7)
T5 sequence: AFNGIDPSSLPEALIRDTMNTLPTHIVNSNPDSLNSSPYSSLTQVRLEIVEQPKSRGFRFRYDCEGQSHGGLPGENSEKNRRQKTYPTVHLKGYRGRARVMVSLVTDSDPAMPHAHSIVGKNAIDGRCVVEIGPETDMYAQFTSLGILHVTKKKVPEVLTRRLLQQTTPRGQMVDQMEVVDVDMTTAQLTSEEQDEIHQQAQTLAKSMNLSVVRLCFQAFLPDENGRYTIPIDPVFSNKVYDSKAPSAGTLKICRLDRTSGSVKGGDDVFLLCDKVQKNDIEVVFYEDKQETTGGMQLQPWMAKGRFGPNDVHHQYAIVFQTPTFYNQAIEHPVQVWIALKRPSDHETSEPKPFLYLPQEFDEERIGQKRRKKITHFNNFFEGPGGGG

Sequence	binding signal (GST-Ap-NF-kB RHD) [z-score]	binding signal [1] [z-score]	binding signal (GST-Co-NF-kB) [z-score]	binding signal (GST-Dm-Relish) [z-score]	binding signal (GST-Aq-NF-kB) [z-score]
CCGATTAACATCAGTTCCTAATATGATGTTAATCGGGTCTTGATTCGCTTGACGCTGCTG	-0.731	0.503	0.508	0.013	-0.404
CCGATTAACATCAAGAAATTCCATGATGTTAATCGGGTCTTGATTCGCTTGACGCTGCTG	-0.642	0.00454	0.0582	0.875	0.598
CCGATTAACATCATGATTCTTGCTGATGTTAATCGGGTCTTGATTCGCTTGACGCTGCTG	-0.299	-0.179	-0.102	-0.442	-0.499
CCGATTAACATCAGCTGCGTTTATGATGTTAATCGGGTCTTGATTCGCTTGACGCTGCTG	-0.499	0.204	-0.9	-0.748	-0.732
CCGATTAACATCAAGTGAATTCCTGATGTTAATCGGGTCTTGATTCGCTTGACGCTGCTG	-0.171	0.145	0.344	3.49	0.625
CCGATTAACATCATAGCCCACCTTGATGTTAATCGGGTCTTGATTCGCTTGACGCTGCTG	0.168	-0.819	-0.132	-0.906	-0.119
CCGATTAACATCACGGCTCGTGATGATGTTAATCGGGTCTTGATTCGCTTGACGCTGCTG	-0.451	-1.15	-0.262	0.0889	-0.517
CCGATTAACATCAGCGCGATTTCTGATGTTAATCGGGTCTTGATTCGCTTGACGCTGCTG	-0.777	0.00338	-0.659	-0.517	-0.75
CCGATTAACATCAGGAGAACGTGTGATGTTAATCGGGTCTTGATTCGCTTGACGCTGCTG	0.294	0.235	0.709	0.593	-0.292
CCGATTAACATCATTCGTACGCATGATGTTAATCGGGTCTTGATTCGCTTGACGCTGCTG	-1.17	-0.439	-1.75	-0.606	-0.671
CCGATTAACATCATGGACGAATTTGATGTTAATCGGGTCTTGATTCGCTTGACGCTGCTG	-0.00435	-0.109	0.362	-0.408	-0.199
CCGATTAACATCAGGTTAAGAGGTGATGTTAATCGGGTCTTGATTCGCTTGACGCTGCTG	0.551	-0.0529	0.794	-0.18	0.107
CCGATTAACATCAAATGTACTAATGATGTTAATCGGGTCTTGATTCGCTTGACGCTGCTG	-0.262	0.164	0.296	1.5	-0.171
CCGATTAACATCAGCCTTGTCAGTGATGTTAATCGGGTCTTGATTCGCTTGACGCTGCTG	-0.163	-0.272	0.374	7.05e-05	0.0617
CCGATTAACATCACGACCAACCGTGATGTTAATCGGGTCTTGATTCGCTTGACGCTGCTG	-0.396	0.324	-0.436	0.0455	-0.346
CCGATTAACATCAATGCCATTCGTGATGTTAATCGGGTCTTGATTCGCTTGACGCTGCTG	0.00142	-0.711	-0.629	-0.402	-0.5
CCGATTAACATCAAGATATTCCCTGATGTTAATCGGGTCTTGATTCGCTTGACGCTGCTG	4.46	4.57	3.05	2.34	4.02
CCGATTAACATCAGGAATGGCCATGATGTTAATCGGGTCTTGATTCGCTTGACGCTGCTG	-0.582	-0.392	-0.568	-0.464	-0.0489
CCGATTAACATCAGTTAGGTTAATGATGTTAATCGGGTCTTGATTCGCTTGACGCTGCTG	-0.064	-0.16	-0.95	-0.476	-0.312
CCGATTAACATCAAGATTTTCCATGATGTTAATCGGGTCTTGATTCGCTTGACGCTGCTG	-0.166	0.111	-0.121	-0.151	0.195
CCGATTAACATCATTAGACAACCTGATGTTAATCGGGTCTTGATTCGCTTGACGCTGCTG	0.166	0.0429	-0.0666	-0.451	-0.375
CCGATTAACATCACAAGAATTCCTGATGTTAATCGGGTCTTGATTCGCTTGACGCTGCTG	0.193	0.0834	-0.00652	1.19	0.657
CCGATTAACATCATAGAACTCGATGATGTTAATCGGGTCTTGATTCGCTTGACGCTGCTG	-0.545	-0.426	-0.352	-0.794	-0.592
CCGATTAACATCACGGCCTTTCCTGATGTTAATCGGGTCTTGATTCGCTTGACGCTGCTG	0.226	-0.373	-0.51	1.05	1.82
CCGATTAACATCAGTTCTCCGGGTGATGTTAATCGGGTCTTGATTCGCTTGACGCTGCTG	0.843	0.0598	0.832	0.314	0.584
CCGATTAACATCAATAAGTTCCTTGATGTTAATCGGGTCTTGATTCGCTTGACGCTGCTG	-0.555	-0.136	0.152	0.0693	-0.181
CCGATTAACATCAGCAATAGGCTTGATGTTAATCGGGTCTTGATTCGCTTGACGCTGCTG	-0.383	-0.0284	-0.195	-0.282	-0.649
CCGATTAACATCATTGTTATGCTTGATGTTAATCGGGTCTTGATTCGCTTGACGCTGCTG	-0.569	-0.622	0.143	-0.172	-0.389
